Laboratory results published in PubChem BioAssay (NCI).
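Method: 48-hour compound exposure of cells in 96-well plates, five concentrations, linear interpolation of endpoints. GI50 marks 50% less growth. TGI denotes the concentration required for complete inhibition of growth.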

System: NCI-H322M lung
Experiment: DTP human tumour cell line panel, 48 h

Compound | TGI [µM] | GI50 [µM]
CCN(CC)c1ccc(C2SCC(=O)N2c2ccc(NC(=O)c3ccc(N4C(=O)CSC4c4ccc(N(CC)CC)cc4)cc3)cc2)cc1 (stereo not given) | > 100 | 
CN(C(=O)c1ccc(Cl)cc1)C(=S)N1CCN(c2ccccn2)CC1 | > 100 | 
CCO[C@@H]1CCC(S(=O)c2ccc(C)cc2)=CO1 (stereo not given in full) | > 100 | 
COc1ccc(Cc2c(N)[nH]c(=O)n(C)c2=O)cc1 | > 100 | 
COc1ccc(C2C3CCc4ccccc4C3=NN2S(=O)(=O)c2ccc(Cl)cc2)cc1 (stereo not given) | > 100 | 
N#C/C(=C1\NN=C(N)C(c2ccc(Cl)cc2)=C1O)c1ccc(Cl)cc1 | > 100 | 
O=C1NC(=S)NC(=O)C1C(c1ccc([N+](=O)[O-])cc1)C1C(=O)NC(=S)NC1=O | > 100 | 
C(=Nc1ccc(-c2cc(-c3ccccc3)nc3ccc4ccccc4c23)cc1)c1ccccc1 | > 100 | 
CC(/C(=N/NC(=O)C(N)=O)c1c(Cl)ccc(Cl)c1O)C1(O)C(=O)Nc2ccccc21 (stereo not given) | > 100 | 
COc1ccc(N=Nc2ccc3oc(=O)c(C(=O)Nc4ccccc4)cc3c2)cc1 | > 10 | 
Cc1nc(Nc2ccc(F)cc2)c2sc(=S)n(-c3ccc(F)cc3)c2n1 | 25.3 | 
CCn1c2ccccc2c2ccc3c(c21)C(=O)c1ccccc1C3=O | > 100 | 
COc1cc2c(cc1OC)CC(=O)c1cc(OC)c(OC)cc1/C=C\2 | > 12.5 | 
c1ccc(-c2ccc(-c3cc4ccccc4[nH]3)cc2)cc1 | > 100 | 
COc1ccc(N(C)Sc2ccccc2)cc1 | > 100 | 
COc1ccc(C2C(=O)C(Cl)N2Nc2nc(C)cc(=O)[nH]2)cc1OC (stereo not given) | > 100 | 
CC(C)C1OC2(C)OC(=N)C1(C#N)C(C#N)(C#N)C2C (stereo not given) | > 100 | 
CC1CC2C(=O)N(c3ccccc3)C(=O)C2c2c1c1ccccc1n2Cc1ccccc1 (stereo not given) | > 100 | 
C=C1CC2(C[C@@H](c3ccccc3)O[C@@H](c3ccccc3)C2)OC1=O (stereo not given in full) | 16.6 | 

Compound | TGI [µM] | GI50 [µM]
Nc1ccc2nc3ccc(N)cc3[n+](-c3ccccc3)c2c1 | > 100 | 
Cc1nc2cnc3cc(F)c(-c4ccc(Oc5ncccn5)cc4Cl)cc3c2n1[C@H]1CCN(C(=O)CO)C[C@@H]1F | > 82.4 | 2.62
Nc1ccn(CCO)c(=O)n1 | > 100 | 
CC(C)(C)[Si](C)(C)OCC1OC(n2ccc(=O)[nH]c2=O)C(O[Si](C)(C)C(C)(C)C)[C@@]12O[C@H]2C(N)=O (stereo not given in full) | 49.9 | 
N=C(N)C(N=Nc1ccccc1)C(N)=O (stereo not given) | > 100 | 
O=C1CC(c2ccc3c(c2)OCO3)Nc2cc3c(cc21)OCO3 (stereo not given) | > 100 | 0.97
O=C1/C(=C/c2ccc3c(c2)OCO3)CCC1CN1CCOCC1 (stereo not given) | 30.6 | 
CCOP1(=O)C=C(Sc2ccc([N+](=O)[O-])cc2[N+](=O)[O-])C(C)(C)O1 (stereo not given) | 39.2 | 
O=C(Cc1ccccc1)NN1C(=O)C(Cl)C1c1ccc([N+](=O)[O-])cc1 (stereo not given) | > 100 | 
COC(=O)c1cc(-c2cc(OC)c(OC)c(OC)c2)[nH]c1N/N=C/c1c(Cl)cccc1Cl | > 69.7 | 4.63
C=CCOc1ccc(/C(N=Nc2ccccc2)=N/NC(=O)c2ccccc2)cc1OC | > 100 | 
COc1cccc(Nc2nc(-c3cccs3)nc3ccc(Br)cc23)c1 | > 100 | 
OCC(O)C(OC1OC(CO)C(O)C(O)C1O)c1nn(-c2ccccc2)c2nc3cc(Cl)c(Cl)cc3cc12 (stereo not given) | > 100 | 
O=c1[nH]nc2ccccc2c1Cl | 24.8 | 
C=CCN(N=O)C(=O)N(CCCC(NC(C)=O)C(=O)NCc1ccccc1)Cc1ccccc1 (stereo not given) | > 100 | 
CCCc1c(O)c(=O)c2c(OC)cc(OC)c3c4c(OC)cc(OC)c5c(=O)c(O)c(CCC)c(c1c23)c54 | 10.7 | 
CCN(CC)CCC1CCCCN1CC(=O)N1c2ccccc2NC(=O)c2ccccc21 (stereo not given) | > 100 | 
CN=CN(C)c1c2ccccc2nc2ccccc12 | > 100 | 
